Hit rate of the full screen: of about 150,000 compounds, about 540 (0.36%) showed an effect of 50% or more. Some of the results follow.
System: Plasmodium falciparum
Experiment: Primary screen in NF54 nanoGlo assay, in single point, at 2uM, 72h; a lower Z score goes with more inhibition
Type: functional, Erythrocyte
Conditions: timepoint 72 hour

Compound	% Inhibition [%]	Z score
COCCn1cncc1CN1CCN(c2ccccc2F)CC1	-9	1.07
Cc1cc(=O)n(CCN2CCOCC2)c(N2CCCCC2)n1	-14	1.4
Cc1nnc(N2CCN(C(=O)c3ccco3)CC2)c(C#N)c1C	-19	1.71
O=C(CCC(=O)N(Cc1cccc(O)c1)CC1CC1)c1ccccc1	-1	0.19
COc1ccc(-c2cccc(C(=O)NC3CC3)c2)cc1F	-20	2.95
Cc1n[nH]c(C)c1NC(=O)c1cc(F)c[nH]1	1	-0.15
COc1ccc(C)cc1S(=O)(=O)NC(C)(C)C	-2	0.46
CC(C)(C)OC(=O)N1CC(OC(=O)CC2(CS(C)(=O)=O)CC2)C1	-13	1.78
Cc1ccc(C(=O)NCCOc2ccc3c(c2)OCO3)s1	-7	1.42
CCn1nc(C(F)F)cc1-c1ccco1	-1	0.13
Cn1c(C(=O)NCCCN2CCOCC2)cc2c1CCN(Cc1ccccc1)C2	-8	1.31
Cc1nc(N2CCCCC2)c2sc(=S)n(Cc3ccccc3)c2n1	-6	1.2
C[C@@]1(C(=O)NC2CCCCCCC2)CCC(=O)N1Cc1cccs1	12	-1.54
CC(C)CN(CCC(=O)O)C(=O)c1ccccc1	-12	1.12
Cn1c(=O)[nH]c2ncc(-c3cccc(C(=O)NCCCc4c[nH]c5ccccc45)c3)cc21	-12	1.57
CCn1nccc1[C@H]1OCC[C@@H]1CNC(=O)N[C@H]1Cc2ccccc2[C@H]1C	-14	1.28
CNC(=O)[C@@H]1CC[C@](C)(c2ncnn2C)C1(C)C	-11	2.11
O=C(Nc1cnc(Oc2ccccc2)nc1)C(c1ccccc1)c1ccccc1	5	-0.91
CC1(C)CC(NC2CCOC2=O)C(C)(C)O1 (configuration not stated)	-10	1.23

Compound	% Inhibition [%]	Z score
CCOC(=O)N1CCN(C(=O)Cn2ccc3c(OC)cccc3c2=O)CC1	-15	2.79
Cc1ccc(NC(=O)C(=O)N2CCCN(Cc3ccccc3C)CC2)cn1	-11	1.19
CC(C)(C)c1nnc(CS(=O)(=O)Cc2ccccc2F)o1	-12	1.77
Cc1cc(C(=O)N2CCC[C@H]2c2nnc3ccccn23)c(C)s1	6	-0.72
CC(C)c1noc(N(CCO)C2CC2)n1	-5	0.74
CC(C)Oc1ccc(NC(=O)OCC(F)(F)F)cc1	-7	1.17
CC(C)c1nc(C2CCN(C(=O)[C@H]3C[C@@H]3C(F)F)CC2)no1	-14	1.86
COc1ccc(NC(=O)N2CCN3C(=O)CNC(=O)[C@@H]3C2)c(C)c1	-5	0.64
CCN1CCC[C@H](NC(=O)c2cccc(OCc3ccc(F)cc3)c2)C1	2	-0.29
Cc1cccc(-c2ccc(C(=O)N(C)C(C3CC3)C3CC3)c(=O)[nH]2)c1	0	0.04
COC(CNC(=O)c1c[nH]c(C)cc1=O)(OC)c1ccccc1	-12	1.69
CCOc1ccc2c(c1)[C@H](NC(C)=O)C(=O)N2Cc1cc2c(cc1Cl)OCO2	-4	0.59
Cc1occc1C(=O)N[C@@H](C)CCc1ccccc1	0	-0.06
CCN(CCOC)Cc1cc(CC(C)C)nn1C	-12	1.69
CCc1ncnc(NCc2cccc(N)n2)c1F	-5	0.88
COc1ccccc1[C@@H](NC(=O)Cn1cnnn1)c1ccco1	-9	1.46
COC(=O)CN(CN1C(=O)c2cc(Cl)c(Cl)cc2C1=O)[C@H]1CCS(=O)(=O)C1	-2	0.18
Cc1cc[nH]c1C(=O)N1C[C@@H](O)C[C@H]1CO	-10	1.42
COCCN1C(C)CN(S(=O)(=O)N(C)C(C)CC#N)CC1C (configuration not stated)	-8	1.09

Compound	% Inhibition [%]	Z score
COc1ccc(OC)c(-c2n[nH]cc2CN2CC(F)(F)C[C@H]2CN2CCCCC2)c1	-12	2.14
C[C@H](NCC(C)(C)N)c1cccc(Br)c1	-2	0.35
Cc1ccc(C)c(OCc2cc(C(=O)N(C)[C@H]3CCN(C)C3)no2)c1	-25	2.2
CCn1nc(-c2cc(OC(F)(F)F)ccc2O)nc1N(C)C	-8	1.09
CC(C)N(CCN(C)C)C(=O)c1ccc(CNC(=O)OC(C)(C)C)o1	-8	0.73
COc1ccc(CC(=O)N[C@@H](C)c2csc(C(C)C)n2)cc1OC	-19	1.7
C1=CCN([C@H]2CCN(c3cc(N4CCOCC4)ncn3)C2)C1	10	-1.21
Cc1nc(C)c(Br)c(N2CC[C@@](O)(CN(C)C)C2)n1	-8	1.29
CS(=O)(=O)Cc1noc([C@H]2C[C@@H]2C2CC2)n1	-3	0.55
Cc1ccc2[nH]c3c(c2c1)C[C@@H](NS(=O)(=O)C1(C)CC1)CC3	3	-0.34
Cc1nc2ccccc2n1CCNc1nccnc1C#N	-17	3.26
Cc1nc(C(=O)NCCn2cc(C(=O)N(C)Cc3ccccc3)nn2)cs1	-2	0.29
CCOc1ncccc1NC(=O)N(C)[C@@H](C)C(OC)OC	-4	0.76
CC(=O)c1cc(C(=O)N(C)c2ccc(Br)cc2C)n(C)c1	-9	1.04
COc1ccc(F)c(-c2cccnc2O)c1	2	-0.33
Cc1cc(C(=O)NCCOc2ccccc2)c(C)s1	-17	2.3
CC(C)OC(=O)NCCOC(=O)N(O)c1ccc(Cl)cc1	-11	2.21
Cc1noc2nc(CCC(=O)NCc3ccco3)nc(N3CCOCC3)c12	1	-0.13

Source: ChEMBL document CHEMBL4888484, “Replenishing the malaria drug discovery pipeline: Screening and hit evaluation of the MMV Hit Generation Library 1 (HGL1) against asexual blood stage Plasmodium falciparum ,using a nano luciferase reporter read-out” (2022)
